Test results published in PubChem BioAssay AID1745853 (National Center for Advancing Translational Sciences (NCATS), 2022).
The list shows a part of the results. The main result of the screen is listed elsewhere. These columns were measured beside it and carry no call.

Legend:
Test in all cases: Primary Screen for Target Class Profiling of Small Molecule Inhibitors of Methyltransferases
[1] = molecular target: Glycine N-methyltransferase (Homo sapiens) (UniProt Q14749); conditions: purified enzyme, MTase-Glo SAH luminescence; measured here: GNMT inhibition; at 40 µM; stronger effect = lower value
In short: (§1)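 Each enzyme was reacted with SAM and its substrate, with compounds tested once at 40 uM; SAH formed was read by MTase-Glo luminescence.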

[2] = molecular target: Guanidinoacetate N-methyltransferase (Homo sapiens) (UniProt Q14353); conditions: purified enzyme, MTase-Glo SAH luminescence; measured here: GAMT inhibition; at 40 µM; stronger effect = lower value
In short: as §1

[3] = molecular target: Histamine N-methyltransferase (Homo sapiens) (UniProt P50135); conditions: purified enzyme, MTase-Glo SAH luminescence; measured here: HNMT inhibition; at 40 µM; stronger effect = lower value
In short: as §1

[4] = molecular target: Nicotinamide N-methyltransferase (Homo sapiens) (UniProt P40261); conditions: purified enzyme, MTase-Glo SAH luminescence; measured here: NNMT inhibition; at 40 µM; stronger effect = lower value
In short: as §1

[5] = molecular target: Phenylethanolamine N-methyltransferase (Homo sapiens) (UniProt P11086); conditions: purified enzyme, MTase-Glo SAH luminescence; measured here: PNMT inhibition; at 40 µM; stronger effect = lower value
In short: as §1
On the % scale 0 is the no-effect control and ±100 the full control effect.

Structure (SMILES) | activity change, negative = inhibition [1] | activity change, negative = inhibition [2] | activity change, negative = inhibition [3] | activity change, negative = inhibition [4] | activity change, negative = inhibition [5]
CCCN1C(=O)c2ccc(-c3ccco3)n2CC1(C)C(=O)NC1CCCCCCC1 (stereo not given) | -0.569% | 0% | 1.64% | -9.09% | -3.13%
CCC(C)NC(=O)c1ccc2c(=O)n(C)c3nn(CC(=O)Nc4ccccc4C)c(=O)n3c2c1 (stereo not given) | 4.97% | 0% | 5.76% | 2.9% | 2.49%
O=C(Nc1ccncc1)c1cc([N+](=O)[O-])ccc1Cl | -0.48% | 7.09% | 4.04% | -2.04% | 7.87%
CCOC(=O)C1CCN(C(=O)C2COC3(CCCCC3)N2C(=O)c2cc(F)cc(F)c2)CC1 (stereo not given) | -2.11% | -0.037% | -0.2% | -9.76% | 9.29%
O=C(CCCN1CCN(c2ccccn2)CC1)c1ccc(F)cc1 | 0.31% | 8.69% | 10.1% | -8.45% | 2.71%
CC(=O)Nc1ccc(C(=O)NCc2nn(Cc3ccccc3)c3ccccc23)cc1 | 7.08% | 2.84% | 8.37% | -6.55% | 7.23%
Cc1c(C(C)NC(=O)c2ccc(=O)[nH]c2)cnn1-c1cccc2ccccc12 (stereo not given) | -4.46% | -1.66% | 2.13% | -7.54% | -3.91%
Cc1cc(NC(=O)Nc2ccc3c(ccn3C)c2)sn1 | -15.4% | 11.8% | -17.3% | -6.36% | 0.691%
COCCn1c(COc2c(F)ccc(Cl)c2F)nnc1C1CC(N)C1 (stereo not given) | -3.35% | -1.05% | -8.42% | -6.25% | -0.29%
CC1CC(C)CN(S(=O)(=O)c2ccc3c(c2)oc(=O)n3CC(=O)Nc2ccc(Cl)cc2)C1 (stereo not given) | 14.1% | 0.108% | 11.2% | 2.69% | -34.1%
CCc1nc(NCc2cn[nH]c2-c2ccc(Cl)cc2)c2cnn(C)c2n1 | -12.4% | -4.15% | -13.8% | -14.2% | 4.39%
CCCn1nc(CNC(=O)Cc2cccc(F)c2)c2ccccc21 | 13.8% | 4.34% | 12.6% | 3.23% | 9.22%
CC1(C(=O)NCc2ccccc2)Cn2cnc(C(=O)NCCc3ccc(Cl)cc3)c2C(=O)N1C1CC1 (stereo not given) | -3.36% | 0% | 1.53% | 0.049% | 2.08%
C=CC(C)(C)c1[nH]c2ccccc2c1C1=C(O)C(=O)C(c2c[nH]c3c(CC=C(C)C)cccc23)=C(O)C1=O |  | -9.54% |  | -15.5% | -4.62%
CCn1c(CO)nnc1C1CC(NC(=O)c2sccc2N)C1 (stereo not given) | -6.18% | -8.87% | -3.1% | -15.8% | -2.16%
C/C1=C\[C@@H](C)C[C@@H](C)[C@@H](Cc2cnco2)OC(=O)/C(C)=C/[C@@H](C)C[C@@H](C)[C@@H](Cc2cnco2)OC1=O | -1.42% | -0.558% | 10.2% | -13.1% | -9.24%
CNCCCC1(c2ccccc2)OC(C)(C)c2ccccc21 (stereo not given) | 4.18% | 11.8% | -1.43% | -8.26% | 6.86%
CCCn1c(=O)c2ccc(C(=O)NC(C)CC)cc2n2c(=O)n(CC(=O)c3ccc(C)cc3)nc12 (stereo not given) | 1.83% | 1.17% | 4.16% | -0.973% | 4.25%

Structure (SMILES) | activity change, negative = inhibition [1] | activity change, negative = inhibition [2] | activity change, negative = inhibition [3] | activity change, negative = inhibition [4] | activity change, negative = inhibition [5]
CCC1=CC2CN(C1)Cc1c([nH]c3ccccc13)[C@@](C(=O)OC)(c1cc3c(cc1OC)N(C)[C@H]1[C@@](O)(C(=O)OC)[C@H](OC(C)=O)[C@]4(CC)C=CCN5CC[C@]31[C@@H]54)C2 (stereo not given in full) | -5.4% |  | 1.27% |  | 
COCCNC(=O)C1(C)Cn2nc(-c3ccccc3)cc2C(=O)N1c1ccc(F)cc1C (stereo not given) | -7.31% | -1.53% | -2.63% | 1.37% | -3.01%
O=C(/C=C/c1ccc(O)c(O)c1)O[C@H]1[C@@H]2C=CO[C@@H](O[C@@H]3O[C@H](CO)[C@@H](O)[C@H](O)[C@H]3O)[C@@H]2[C@@]2(CO)O[C@@H]12 | -0.48% | 0.283% | 6.92% | -10.5% | -2.43%
CC(C)CC(=O)OC[C@@]1(O)C[C@@]23CC[C@H]4[C@@](C)(CCC[C@@]4(C)C(=O)O)[C@@H]2CC[C@@H]1C3 | 0% | -2.14% | 3.56% | -17.3% | 1.38%
CCOC(=O)c1cc2n(n1)CC(C)(C(=O)NC1CCCCCC1)N(Cc1cccc(F)c1)C2=O (stereo not given) | 7.86% | 4.4% | 5.8% | 3.27% | 5.08%
CC(C)Nc1nc2c(S(=O)(=O)c3ccccc3)nnn2c2ccc(Cl)cc12 | -3.75% | 4.96% | 5.81% | -4.71% | 0.998%
Cn1c(=O)c2c(ncn2Cc2ccc(C(C)(C)C)cc2)n(C)c1=O | 1.15% | 9.2% | 9.8% | -25.1% | 0.113%
CCCn1c(=O)c2ccccc2n2c(SCC(=O)Nc3ccc(C)cc3)nnc12 | -4.49% | 0% | 5.86% | 0.54% | 2.5%
CNC(=O)C1C(=O)NCC12CCN(C(=O)c1ccc(C(C)(C)C)cc1)CC2 (stereo not given) | -4.63% | -4.39% | -2.49% | -15.7% | 8.98%
CN(C)c1cc(N2CCCC(NC(=O)c3cccnc3)C2)ncn1 (stereo not given) | -6.04% | -4.95% | -3.07% | -7.76% | -2.45%
COc1cccc(CN2CC3(C2)NC(=O)c2ccccc2O3)c1 | -4.55% | 3.98% | -3.09% | -8.45% | -0.902%
O=C(/C=C\n1cnc(-c2cc(C(F)(F)F)cc(C(F)(F)F)c2)n1)N1CC(F)(F)C1 | -6.83% | 1.79% | 8.05% | -18.1% | 2.61%
CCCn1c(=O)c2ccc(C(=O)NC(C)C)cc2n2c(SCc3ccc(F)cc3)nnc12 | -2.87% | -3.14% | 3.11% | -11.1% | -7.21%
CN1CCN(C(c2ccccc2)c2ccccc2)CC1 | -6.48% | -2.1% | 7.18% | -23.2% | 0.56%
COCCCNC(=O)CCn1ccc2cc(S(=O)(=O)N3CCCCC3)ccc21 | 9.98% | 5.09% | 7.64% | 8.18% | 3.6%
CCCC[S+](=O)([O-])N1CC(=O)N(CCCc2ccccc2)CC(O)C1 (stereo not given) | -0.393% | 2.4% | 0.828% | -1.92% | -1.74%
CO[C@H]1C[C@@H]2CC[C@@H](C)[C@@](O)(O2)C(=O)C(=O)N2CCCC[C@H]2C(=O)O[C@H]([C@@H](C)C[C@@H]2CC[C@@H](O)[C@H](OC)C2)CC(=O)[C@H](C)/C=C(\C)[C@@H](O)[C@@H](OC)C(=O)[C@H](C)C[C@H](C)/C=C/C=C/C=C/1C | -7.88% | 13.5% | 6.18% | 3.34% | 8.66%
CC(C)OC(=O)C1=CN(C(=O)c2ccc(F)c(F)c2)CC(C)(C)c2c1[nH]c1ccccc21 | -1.42% | -13.1% | -0.2% | -23.2% | -8.86%
